Results published in ChEMBL document CHEMBL4888484, “Replenishing the malaria drug discovery pipeline: Screening and hit evaluation of the MMV Hit Generation Library 1 (HGL1) against asexual blood stage Plasmodium falciparum ,using a nano luciferase reporter read-out” (2022).
Among all 150,000 compounds or so, about 540 (0.36%) showed an effect of 50% or more. This is one part of the list.

These molecules were tested on Plasmodium falciparum (assay: Primary screen in NF54 nanoGlo assay, in single point, at 2uM, 72h; a lower Z score goes with more inhibition). Conditions: timepoint 72 hour.
Format: functional, Erythrocyte
With `CC(C)N(C)c1ccccc1NC(=O)CN(C)C(=O)c1cccs1` the “% Inhibition” value was -10% and the Z score was 1.3. In the case of `CCc1nocc1CN1CCO[C@@H](CNc2nccn(C)c2=O)C1`, the “% Inhibition” value is reported as -6% and the Z score is reported as 1.27. With `CN(Cc1cnc(N)nc1)c1ncc2c(n1)CCN2c1ccccc1` the “% Inhibition” value was -8% and the Z score was 1.4. For `CC[C@H](C)N(Cc1csc(COc2cccc(C)c2)n1)C(=O)c1cccc(OC)c1`, the “% Inhibition” value was -11% and the Z score was 1.29. `CN(CC1CCCC1O)C(=O)c1cc(F)c(Cl)cc1Cl` (stereo not drawn) was tested, and the “% Inhibition” value was -8% and the Z score was 0.79. With `Cc1nc([C@H](C)NC(=O)c2ccc3ncsc3c2)n[nH]1` the “% Inhibition” value was -9% and the Z score was 1.23. With `C=CCN1CCc2c(c(C(=O)N(C)Cc3cscn3)nn2Cc2ccccc2)C1` the “% Inhibition” value was -14% and the Z score was 1.58. `CC1CCCC1CC(=O)N1C[C@@H]2[C@H](C1)[C@H]2NC(=O)c1conc1C1CC1` (stereo partly drawn) was tested, and the “% Inhibition” value was -4% and the Z score was 0.57. In the case of `CCc1ccccc1C(=O)NC1CCC(N2C(=O)CCC2=O)CC1` (stereo not drawn), the “% Inhibition” value is reported as -8% and the Z score is reported as 1.09. `CC(C)(C#N)c1nc(Cc2ccc(F)c(Br)c2)no1` was tested, and the “% Inhibition” value was -18% and the Z score was 1.52. `c1ccc(-c2nnc([C@H]3CCN(CC4CCCCC4)C3)o2)cc1` was tested, and the “% Inhibition” value was -8% and the Z score was 1.17. In the case of `Cc1cccc(N2CCOC3(CCOCC3)C2)n1`, the “% Inhibition” value is reported as -8% and the Z score is reported as 0.73. `COc1ccc(CCc2nc(NC(=O)c3cc(-c4ccc(OC)cc4)nn3C)n[nH]2)cc1` was tested, and the “% Inhibition” value was -4% and the Z score was 0.75. For `CCc1cccc(-n2c([C@H]3CC(=O)N(Cc4ccccc4)C3)n[nH]c2=O)c1`, the “% Inhibition” value was -8% and the Z score was 1.51. With `O=C(NCc1cncc(-c2ccco2)c1)Nc1cccnc1` the “% Inhibition” value was 9% and the Z score was -1.23. `Cc1ccc(Br)c(NC(=O)NCC(F)(F)F)c1` was tested, and the “% Inhibition” value was -11% and the Z score was 1.48. `CC[C@@H](CNC(=NC)NCc1noc(C)n1)Oc1ccccc1` was tested, and the “% Inhibition” value was -3% and the Z score was 0.32. In the case of `O=C(C1=Cc2ccccc2OC1)N1CCN(c2cccc(C(F)(F)F)c2)CC1`, the “% Inhibition” value is reported as -3% and the Z score is reported as 0.29. `CC(C)(C)n1nc(-c2ccco2)nc1[C@@H]1C[C@@H](O)CN1` was tested, and the “% Inhibition” value was -6% and the Z score was 0.74. `CCC[C@H]1CCN(C2CCN(c3cccc(N4CCCC4=O)c3)CC2)C1` was tested, and the “% Inhibition” value was -9% and the Z score was 1.21. With `CCc1cc2c(N3CCCC4(C3)OCCO4)ncnc2s1` the “% Inhibition” value was -7% and the Z score was 1.23. With `C[C@]1(/[N+]([O-])=C/c2ccc(F)cc2)CCCCC1=O` the “% Inhibition” value was 13% and the Z score was -1.5. In the case of `CN1CCCN(C(=O)CCc2ccc3c(ccn3C)c2)CC1`, the “% Inhibition” value is reported as -3% and the Z score is reported as 0.55. With `CCC[C@H]1CN(S(=O)(=O)N2CCC(C)(C)CC2)C[C@@H]1NC(C)=O` the “% Inhibition” value was 5% and the Z score was -1.03. `Cc1nnc(CN(C)Cc2csc(C(C)(C)O)n2)s1` was tested, and the “% Inhibition” value was 2% and the Z score was -0.28. With `CN1CCOC(C(=O)NC(c2c(F)cccc2F)C(F)(F)F)C1` (stereo not drawn) the “% Inhibition” value was 36% and the Z score was -4.79. For `O=C(CCc1nnc2ccc(N3CCOCC3)nn12)Nc1cccnc1`, the “% Inhibition” value was -14% and the Z score was 2.33. In the case of `CC(=O)Oc1c(C)cc(CN2C[C@H](O)[C@@H](N3CCN(C)CC3)C2)cc1C`, the “% Inhibition” value is reported as -8% and the Z score is reported as 1.04. For `COc1ccc(C(=O)N[C@H]2CCC23CCOCC3)cn1`, the “% Inhibition” value was 10% and the Z score was -1.35. In the case of `CC(=O)N(c1nc(CN2C[C@H](C)Oc3cc(C)c(Br)cc32)cs1)C1CC1`, the “% Inhibition” value is reported as 1% and the Z score is reported as -0.24. For `CCc1cccc(C)c1Nc1c(-c2c[nH]c3ccccc23)nc2cnccn12`, the “% Inhibition” value was -6% and the Z score was 0.61. `CC(C)c1nc(CN2CCC(=O)N(C)c3cc(F)ccc32)n[nH]1` was tested, and the “% Inhibition” value was -12% and the Z score was 1.54. `CCOC(=O)[C@]12CCCN[C@@H]1CCN(c1nc3c(c(NC)n1)CCC3)C2` was tested, and the “% Inhibition” value was -12% and the Z score was 1.12. For `Cn1c(CNC2CCCC2Cc2ccccc2)nnc1C1CC1` (stereo not drawn), the “% Inhibition” value was 3% and the Z score was -0.38. In the case of `CC(C)[C@H](C)NC(=O)CNCCn1cccn1`, the “% Inhibition” value is reported as -3% and the Z score is reported as 0.55. For `NC(=O)CCOc1ccccc1NCc1cccc(-c2ccncc2)c1`, the “% Inhibition” value was -7% and the Z score was 0.67. For `CCc1nc(C)c(C(=O)N2CCc3[nH]cnc3[C@H]2c2cccnc2)s1`, the “% Inhibition” value was -1% and the Z score was 0.18. In the case of `CC(C)c1nccc(NCCc2ccc[nH]2)n1`, the “% Inhibition” value is reported as -5% and the Z score is reported as 0.79. In the case of `CC1(C)C[C@H](NC(=O)c2cnnn2-c2cccc(F)c2)CO1`, the “% Inhibition” value is reported as -6% and the Z score is reported as 0.95. `COc1ccc(OC)c(C2=NS(=O)(=O)N(C)C(C(=O)N3CCCCC3)=C2)c1` was tested, and the “% Inhibition” value was -6% and the Z score was 1.2. With `O=C1C[C@H](Nc2nccc(C(F)(F)F)n2)CN1CC(F)(F)F` the “% Inhibition” value was -18% and the Z score was 2.5. For `CC(C)C(=O)N1CCC([C@@H]2CN(C3CCOCC3)C[C@H]2COc2ccccc2)CC1`, the “% Inhibition” value was -11% and the Z score was 1.29. `Cc1cccc2cc(-c3noc(-c4ccccc4)n3)c(N3CCOCC3)nc12` was tested, and the “% Inhibition” value was -18% and the Z score was 3.34. For `FC(F)(F)C1CCCC(c2nnc(-c3ccccn3)o2)C1` (stereo not drawn), the “% Inhibition” value was -14% and the Z score was 1.5. With `CN1CCN(c2ccncc2NC(=O)c2ccc(Nc3ccn(C)n3)cc2)CC1` the “% Inhibition” value was -11% and the Z score was 1.18. With `CCN(CC)c1nc(-c2ccc(F)cc2)ncc1C(=O)N1CCOCC1` the “% Inhibition” value was -23% and the Z score was 2.92. `CNC(=O)c1cc(Oc2cccc(NC(=O)N3CCCC4(CC3)CC4)c2)ccn1` was tested, and the “% Inhibition” value was -5% and the Z score was 0.68. With `COCCn1ccnc1CN(C)CC1CCOCC1` the “% Inhibition” value was 6% and the Z score was -0.88. `CC(=O)c1ccc(N2CCN(c3cnc4cc(S(=O)(=O)N5CCCCC5)ccc4n3)CC2)cc1` was tested, and the “% Inhibition” value was -25% and the Z score was 4.05. For `CC(C)c1ccc(OC(=O)CN2CCCNC2=O)cc1`, the “% Inhibition” value was 6% and the Z score was -0.91. For `Cc1nn(C)c(C)c1C(C)NC(=O)CCC1CCCN(c2cc(NC3CC3)ncn2)C1` (stereo not drawn), the “% Inhibition” value was -8% and the Z score was 1.56. `COc1ccc(C2=C(c3ccc(OC)cc3)C3(c4ccccc4)C(=O)C2(c2ccccc2)C2C(=O)NC(=O)C23)cc1` (stereo not drawn) was tested, and the “% Inhibition” value was -6% and the Z score was 1. For `O=C(Cn1nnc2ccccc21)Nc1nc(-c2ccccc2)cs1`, the “% Inhibition” value was 4% and the Z score was -0.49. With `O=C(CNc1cc(C(F)(F)F)cc(C(F)(F)F)c1)Nc1cccc(C(=O)NC2CC2)c1` the “% Inhibition” value was 3% and the Z score was -0.5. `CCCn1cc(CNC(=O)c2c[nH]nc2-n2cnnn2)cn1` was tested, and the “% Inhibition” value was -9% and the Z score was 1.64. In the case of `CN(Cc1noc(C2CCCC2)n1)C(=O)Nc1ccc(-c2nncn2C)cc1`, the “% Inhibition” value is reported as 3% and the Z score is reported as -0.51. For `CC(C)[C@H](NC(=O)Nc1cccc(Cl)c1)C(=O)O`, the “% Inhibition” value was -6% and the Z score was 0.71. With `Cc1ccccc1NCC(=O)Nc1ncc(Cc2ccccc2)s1` the “% Inhibition” value was -4% and the Z score was 0.57. For `COc1ccc(C(=O)N2C[C@H]3CCC[C@@H](OC)[C@H]3C2)cc1F`, the “% Inhibition” value was 1% and the Z score was -0.05. In the case of `O=C(NC1CCC(Oc2ncccc2Cl)CC1)N1CCN2CCC[C@H]2C1` (stereo partly drawn), the “% Inhibition” value is reported as -5% and the Z score is reported as 0.71. `COc1ccc(N2CCN(C(=O)c3cn(Cc4ccccc4)nc3OCc3ccccc3)CC2)cc1` was tested, and the “% Inhibition” value was -2% and the Z score was 0.2. `c1ccc(-c2nc(-c3ccc4ccccc4c3)cs2)cc1` was tested, and the “% Inhibition” value was -5% and the Z score was 0.67. `COc1ccc(CC(=O)N2CCOC3CCCC32)cc1OC` (stereo not drawn) was tested, and the “% Inhibition” value was 8% and the Z score was -1.41. For `CC1CCN(C(=O)NC2CC(C)n3ccnc32)CC1n1ccnc1` (stereo not drawn), the “% Inhibition” value was 12% and the Z score was -1.4. With `OC1CCN(CCn2ccnc2-c2cccc3c2oc2ccccc23)CC1` the “% Inhibition” value was -7% and the Z score was 1.29. For `CC(C)C(=O)N1CC[C@H](Nc2nccn3cnnc23)C1`, the “% Inhibition” value was -9% and the Z score was 0.97. In the case of `CN(CC(C)(C)CO)c1nccc(C2CCCC2)n1`, the “% Inhibition” value is reported as -8% and the Z score is reported as 1.24. `CC(C)c1ccc(CNc2nc3ccncc3n(Cc3ccccc3)c2=O)cc1` was tested, and the “% Inhibition” value was 19% and the Z score was -1.87. `Cc1nc(CN2CC(=O)N(C)[C@@H](C)C2)co1` was tested, and the “% Inhibition” value was -5% and the Z score was 0.48. In the case of `CCS(=O)(=O)Nc1ccc(C)n(CC(=O)NCc2ccccc2Br)c1=O`, the “% Inhibition” value is reported as -10% and the Z score is reported as 1.34. With `Cc1n[nH]cc1NC(=O)C(=O)c1ccc2c(c1)OCCO2` the “% Inhibition” value was -3% and the Z score was 0.48. For `CNC(=O)[C@@H]1CCCN1c1ncnc2c1cnn2-c1ccccc1`, the “% Inhibition” value was -16% and the Z score was 1.65. `CC(=O)N1CCC(CNC(=O)OCc2ccccc2)CC1` was tested, and the “% Inhibition” value was -2% and the Z score was 0.14. For `O=C(CN1CCCCC1)N1CCc2sccc2C1`, the “% Inhibition” value was -1% and the Z score was 0.13. `CNC(=O)c1n[nH]c2c1[C@@H](CCn1nc(C)cc1C)CC(=O)N2` was tested, and the “% Inhibition” value was -6% and the Z score was 1.03. For `Cc1c(-c2n[nH]c(=O)n2[C@@H](C)c2ccc(Cl)cc2)cnn1C`, the “% Inhibition” value was -6% and the Z score was 1.17. With `COCCNc1nc(N2CCCCCC2)c2cnn(-c3ccccc3)c2n1` the “% Inhibition” value was 0% and the Z score was 0.03. In the case of `CN(C)c1ccc(-c2ccnc(N[C@H]3CO[C@H]4[C@@H]3OC[C@@H]4NC(=O)C3CCCCC3)n2)cc1`, the “% Inhibition” value is reported as 2% and the Z score is reported as -0.3. In the case of `COCc1cn([C@@H]2CC[C@H]3CCOc4ccccc4C(=O)N4CCN(Cc5ccc(F)c(F)c5)C[C@H]4C(=O)NC[C@H]2O3)nn1`, the “% Inhibition” value is reported as 15% and the Z score is reported as -1.79. For `CC(C)Oc1ccc(S(=O)(=O)Nc2cnsc2)cc1`, the “% Inhibition” value was -5% and the Z score was 0.61. With `CC(C)S(=O)(=O)[C@@H](C)C(=O)Nc1cc[nH]n1` the “% Inhibition” value was 5% and the Z score was -0.99. In the case of `CC(C)c1cc(NC(=O)NC2CC3CCC2O3)no1` (stereo not drawn), the “% Inhibition” value is reported as -2% and the Z score is reported as 0.38. For `Cc1nc(N2CCCC2)nc(C)c1NC(=O)c1ccc2c(c1)OCO2`, the “% Inhibition” value was -4% and the Z score was 0.62. `CC(C)c1nn(C)c2sc(C(=O)N[C@@H](C)C(=O)N3CCCCC3)cc12` was tested, and the “% Inhibition” value was 2% and the Z score was -0.31.
